# According to publication PMC4336329 (PLoS ONE, 2015):
# Screen size: about 310,000 compounds; about 14,000 (4.5%) showed an effect of 50% or more. The effect is printed as a negative number. The list shows a part of the results.
# Molecular target: human ether-à-go-go-related gene (hERG) potassium channel (human, UniProt Q12809)
# Test: primary screen, population patch clamp on CHO cells stably expressing hERG
# 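Further: peak tail current of the secondary pulse compared with the same well before compound.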
# human ether-à-go-go-related gene (hERG) potassium channel, sequence (Q12809 whole entry, looked up): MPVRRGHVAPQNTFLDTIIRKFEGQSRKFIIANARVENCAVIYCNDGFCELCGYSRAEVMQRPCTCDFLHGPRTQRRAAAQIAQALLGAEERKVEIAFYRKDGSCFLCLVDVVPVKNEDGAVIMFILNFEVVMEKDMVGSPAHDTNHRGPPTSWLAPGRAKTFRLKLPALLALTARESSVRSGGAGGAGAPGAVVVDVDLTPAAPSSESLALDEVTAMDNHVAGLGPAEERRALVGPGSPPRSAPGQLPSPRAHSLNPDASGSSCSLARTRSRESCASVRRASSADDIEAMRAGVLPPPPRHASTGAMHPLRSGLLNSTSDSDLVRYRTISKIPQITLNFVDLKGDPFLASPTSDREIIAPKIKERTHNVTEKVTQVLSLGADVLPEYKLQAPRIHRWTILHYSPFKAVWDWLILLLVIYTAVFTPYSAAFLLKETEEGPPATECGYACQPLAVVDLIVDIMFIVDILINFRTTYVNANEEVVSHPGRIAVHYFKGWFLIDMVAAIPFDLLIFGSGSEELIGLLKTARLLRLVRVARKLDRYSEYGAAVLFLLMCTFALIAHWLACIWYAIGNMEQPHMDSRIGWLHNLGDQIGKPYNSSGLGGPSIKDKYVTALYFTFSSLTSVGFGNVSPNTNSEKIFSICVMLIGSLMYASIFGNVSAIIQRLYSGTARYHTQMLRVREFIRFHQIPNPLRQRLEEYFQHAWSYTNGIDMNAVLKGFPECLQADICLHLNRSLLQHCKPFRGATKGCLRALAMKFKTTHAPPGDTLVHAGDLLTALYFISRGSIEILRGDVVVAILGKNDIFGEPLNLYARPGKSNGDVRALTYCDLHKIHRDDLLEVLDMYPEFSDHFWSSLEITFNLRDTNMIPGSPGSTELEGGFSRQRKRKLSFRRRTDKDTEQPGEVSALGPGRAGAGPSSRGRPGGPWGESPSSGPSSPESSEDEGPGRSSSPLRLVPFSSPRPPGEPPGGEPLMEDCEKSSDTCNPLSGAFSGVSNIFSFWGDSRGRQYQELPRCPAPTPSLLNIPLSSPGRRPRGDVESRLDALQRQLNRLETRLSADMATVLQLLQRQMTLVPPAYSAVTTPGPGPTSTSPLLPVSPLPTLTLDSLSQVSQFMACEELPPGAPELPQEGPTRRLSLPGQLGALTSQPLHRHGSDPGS
row,SMILES,"hERG current change (%, negative = inhibition) at 10uM [%]"
1,Cc1nnc(SCC(=O)NCc2ccc3c(c2)OCO3)n1C,25.1
2,Cc1ccc(NC(=O)c2cc(-c3cc(Cl)ccc3O)n[nH]2)cc1C,26.3
3,CCOC(=O)c1nn(-c2ccc([N+](=O)[O-])cc2)cc1O,2.65
4,O=C(Nc1ccccc1F)C1CCN(S(=O)(=O)c2cccc3nonc23)CC1,7.98
5,c1ccc2c(c1)-c1cccc3c1c-2cc1ccccc13,13.9
6,Cn1nnnc1SCC(=O)NCc1ccc2c(c1)OCO2,31.4
7,CCOc1ccc(N(C)C(=O)CCc2nnc3ccc(N4CCCCC4)nn23)cc1,3.74
8,CCn1c(=O)c(C(=O)Nc2ccc(C)cc2)c(O)c2ccccc21,18.1
9,FC(F)(F)C1=CC(c2ccc(Br)cc2)=NCCN1,-25.2
10,CCCN(CC(=O)Nc1ccccc1OC)C(=O)CC1CCCC1,-3.09
11,COc1ccc(N2CCN(C(CNC(=O)Oc3ccccc3)c3cccnc3)CC2)cc1 (centres unmarked),-27.5
12,COC(=O)c1ccccc1NC(=O)COC(=O)[C@H](C)NC(N)=O,19.3
13,COC(=O)NC(=S)Nc1ccc(Oc2ccc(Cl)cc2)c(Cl)c1,16.9
14,CC(C)c1ccc(NC(=O)c2ccc3c(c2)C(=O)N(Cc2cccnc2)C3=O)cc1,-7.94
15,Cn1c2ccccc2n2c(=O)cc(-c3ccccc3)c(C#N)c12,-4.72
16,Cc1ccccc1-c1nnc(CS(=O)(=O)c2ccccc2)o1,-19.2
17,CCOC(=O)Cn1ncc2c3ccccc3n(CC(=O)OCC)c2c1=O,13.2
18,C=CCNc1nnc(SCC(=O)N2CCCCC2)c2ccccc12,-21.1
19,Cc1ccccc1NC1=CC(=O)CC(C)(C)C1,-0.789
20,Cc1cc(C)c2[nH]c(O)c(N=Nc3ccc(C(=O)O)cc3)c2c1,22.7
21,Cc1c(NC(=O)CSc2nnnn2-c2ccc(C(=O)O)cc2)c(=O)n(-c2ccccc2)n1C,20.8
22,COC(=O)C(C)Oc1cc(OC(C)C(=O)OC)c2c(-c3ccccc3)cc(=O)oc2c1 (centres unmarked),-22.1
23,COc1ccc([N+](=O)[O-])cc1N(CC(=O)N1CCCCC1)S(C)(=O)=O,10.5

row,SMILES,"hERG current change (%, negative = inhibition) at 10uM [%]"
1,O=C(Nc1ccc2c(c1)OCCO2)C1CCN(C(=O)c2ccc(F)cc2)CC1,3.73
2,CCn1ccnc1[C@@H]1C[C@H]2CN(c3ccccc3OC)C(=O)[C@]23CCCN13,19.8
3,C/C(=N\NC(=O)c1nnn(-c2nonc2N)c1C(C)C)c1ccc2ccccc2c1,5.86
4,CCCCCCCC(=O)NNC(=O)Cc1ccccc1,0.497
5,COc1ccc(/C=C/C(=O)c2c(C)nc3ccccn23)cc1,3.6
6,Cc1cc(=O)n2c(sc3ccccc32)c1C#N,12.9
7,CCCCn1ccc(O)c(Cc2ccc(F)cc2)c1=O,10.7
8,CC(NC(=O)c1ccc(Cl)cc1)C(=O)N1CCCCC1 (centres unmarked),15.4
9,COc1cccc(CNC(=O)c2c[nH]n3c(=O)c(Cl)c(C)nc23)c1,-2.28
10,O=C(NCC1CCCO1)C(c1ccccn1)N(Cc1ccccc1Cl)C(=O)CN1C(=O)c2ccccc2S1(=O)=O (centres unmarked),2.83
11,Cc1cc(NC(=O)Cc2ccccc2)c2ccccc2n1,14.2
12,O=S(=O)(c1ccc(F)cc1)c1snnc1-c1ccccc1,2.36
13,O=S(=O)(NCC1OCCc2ccccc21)c1ccccc1 (centres unmarked),7.12
14,CCOC(=O)c1c(C)[nH]c(C(=O)COC(=O)c2ccccn2)c1C,-17
15,Cc1ccsc1C(=O)Nc1ccccc1N1CCCC1,-13.6
16,COC(=O)[C@H](CCSC)NC(=O)Nc1cc(OC)cc(OC)c1,14.5
17,COCc1c(C(=O)N2CCN(Cc3nc4ccccc4s3)CC2)oc2ccccc12,-72.5
18,O=C(/C=C\c1ccc(-c2ccccc2)o1)c1ccccc1,3.16
19,Cc1cc2c(cc3c(=O)n(CC(=O)NCCCN4CC(C)CC(C)C4)ncn32)s1 (centres unmarked),-53.4
20,O=C1NN(c2ccccc2)C(=O)/C1=C\c1coc2ccc(O)cc2c1=O,-16.7
21,COc1ccc(CCn2c(C(C)C)nc3c(c(=O)c4ccccc4n3C)c2=O)cc1,-30
22,CCN(CC(=O)Nc1ccc(OC)cc1)C(=O)CSCC(=O)Nc1ccc(C)cc1,-23.5
23,CCN(c1ccccc1)S(=O)(=O)c1ccc(C(=O)NNC(=O)c2ccccc2F)cc1,-7.99

row,SMILES,"hERG current change (%, negative = inhibition) at 10uM [%]"
1,CC(C)CC(=O)Nc1ccc(S(=O)(=O)Nc2nccs2)cc1,-6.26
2,CCOC(=O)c1ccc(NC(=O)CS(=O)(=O)c2cn(CC)c3ccccc23)cc1,-2.2
3,Cc1ccc(S(=O)(=O)NNC(=O)c2sc(=S)n(C)c2C)cc1,4.98
4,O=C(CSc1nnc(-c2ccccc2)c(-c2ccccc2)n1)NC1CCS(=O)(=O)C1 (centres unmarked),17.3
5,CC1(C)OCC(C2CC(c3ccccc3)NS(=O)(=O)O2)O1 (centres unmarked),25.9
6,COc1ccc(-c2c(C#N)c(N)nc3c2CCCC3)cc1OC,12.5
7,CCc1ccc(NC(=S)N(CCCN2CCOCC2)Cc2ccco2)cc1,-12.6
8,COc1ccc2oc3ccc(OC)cc3c(=O)c2c1,-6.52
9,COCCn1c(SCC(=O)NC2CCCCC2)nnc1-c1ccncc1,5.92
10,O=C(CSc1ncn(-c2ccccc2)n1)NCc1ccccc1,-20.3
11,Cc1ccc2nc(C)cc(C(=O)N3CCCC(CO)(Cc4ccccc4C)C3)c2c1 (centres unmarked),-4.66
12,COc1cc(CNC2CCCCCC2)cc(OC)c1,-9.7
13,CCCCCn1c(CCNC(=O)CCC)nc2ccccc21,-57.2
14,Cc1ccc(S(=O)(=O)NC2CCCC2)cc1C,-9.68
15,S=C(NCc1ccc2c(c1)OCO2)Nc1ccc2nsnc2c1,18.1
16,Cc1ccccc1NC(=O)Cc1nnc(SCc2ccc(Cl)c(Cl)c2)n1C,0.81
17,O=C(C1CC(=O)N(C2CCCCC2)C1)N1CCN(c2ccccc2)CC1 (centres unmarked),-10.9
18,COCC(=O)N(Cc1cc2cccc(C)c2[nH]c1=O)c1ccccc1,8.99
19,CNc1c([N+](=O)[O-])cnn1-c1cccc(Cl)n1,14.4
20,NC(=O)CSc1nnnn1-c1ccccc1Cl,6.07
21,O=C(CSc1nnc(-c2cccnc2)o1)Nc1nccs1,8.81
22,Cc1ccccc1-c1nc2cc(NC(=O)C3CC3)ccc2o1,7.97
23,Cc1csc(SCC(=O)Nc2cccc3nsnc23)n1,-14.8

row,SMILES,"hERG current change (%, negative = inhibition) at 10uM [%]"
1,COc1cc(/C=C/C(=O)NCc2cccnc2)cc(OC)c1OC,0.841
2,CCCC1=NCCn2cccc21.O=C(O)/C=C/C(=O)O,6.81
3,O=C(NCc1ccco1)C1CCN(S(=O)(=O)N2CCC3(CC2)OCCO3)CC1,-2.55
4,COc1ccc(C(=O)Nc2nnc(S(=O)(=O)Cc3ccc(F)cc3)s2)cc1,12.1
5,CCOC(=O)Cc1nnc(NC(=O)Nc2ccccc2)s1,2.47
6,C=CCN1CC(O)=C(c2ccccc2)C1=N,7.37
7,C(=N\N1CCN(Cc2ccccc2)CC1)/c1ccccc1,-1.37
8,Cc1ccccc1C(=O)N=c1c(C#N)cc2c(=O)n3cccc(C)c3nc2n1Cc1ccco1,-46.2
9,CCc1nn(CC(=O)N2CCC3(CC2)OCCO3)c(=O)c2cccn12,16.7
10,Cc1ccc(S(=O)(=O)Nn2cnnc2)cc1,25.2
11,Cc1ccc(NC(=S)NCCC2=CCCCC2)cc1,-13.7
12,COc1ccc(Cl)cc1NC(=O)CSc1nc2sccc2c(=O)[nH]1,25.2
13,O=C(CCc1ccccc1)N1CCCN(C(=O)CCc2ccccc2)CC1,-51.5
14,CN1C(=O)NC2(O)C(=O)c3ccccc3C12O (centres unmarked),4.48
15,CCN(CC)CCNC(C(=O)Nc1cc(C(F)(F)F)ccc1Cl)c1ccccc1 (centres unmarked),-76.4
16,O/N=C(\c1ccc(Cl)cc1)c1cc2ccccc2o1,9.58
17,O=C(NC(NC(=O)c1ccccc1)C(=O)c1ccccc1)c1ccccc1,13.3
18,COc1cc(C2Nc3ccc4ncccc4c3C3=C2C(=O)CCC3)cc(OC)c1O (centres unmarked),12.9
19,CCCCSc1nnc(-c2cc(Br)ccc2N)c(=O)[nH]1,-10.9
20,COc1cc2nc(CN(C)Cc3ccc(F)cc3)[nH]c(=O)c2cc1OC,-13.5
21,CCOC(=O)C1(Cc2cccc(F)c2)CCN(Cc2cnn(CC)c2)CC1,-32.2
22,COc1ccc(/C=N/NC(=O)Cc2n[nH]c(=O)[nH]c2=O)cc1,31.4
23,O=C(COc1ccc([N+](=O)[O-])cc1Cl)NCCc1ccccc1,-41.8
